# According to the supplement of paper PMC3334620:
# Over roughly 33,000 sequences, “E-score (-0.5 to 0.5)” has its median near -0.04; the highest 2% begin near 0.36. The list shows a part of the results.
# Target: T1, Hmlalpha2 (UniProt P0CY09)
# T1 sequence: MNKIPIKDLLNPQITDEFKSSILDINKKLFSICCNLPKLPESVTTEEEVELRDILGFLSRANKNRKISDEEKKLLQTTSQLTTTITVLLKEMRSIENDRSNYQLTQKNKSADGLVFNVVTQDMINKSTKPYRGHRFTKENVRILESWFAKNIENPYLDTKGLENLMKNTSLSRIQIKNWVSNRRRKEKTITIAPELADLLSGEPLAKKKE
# Test: PBM E-score (8-mer binding enrichment) (E-score (-0.5 to 0.5)); higher = stronger / more preferred TF binding; most listed sequences are background and not binding sites
# Conditions: protein concentration: 200 nM; construct: GST-full length
# In short: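 For each ungapped eight-base word taken together with its reverse complement, the Universal PBM Analysis Suite assigned an E-score. Binding data came from GST-tagged yeast transcription factors, applied at about 100-200 nM, on universal all-10-mer Agilent arrays made double-stranded by primer extension. Fluorescent anti-GST marked bound protein, and scans were normalised with masliner.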
row,Sequence,PBM E-score
1,CAATGCTA,0.0757
2,CCGCTCGC,-0.192
3,AGGCCAAA,-0.118
4,CAAGGAAC,0.157
5,CTGTCGAA,0.114
6,GCAGGACA,-0.0748
7,CTGTTACA,0.281
8,CCTCGCTA,-0.2
9,ATATAAGA,0.129
10,AAATAAGA,0.0456
11,ACCCGTTA,0.0329
12,AAGCGCTG,-0.0761
13,CTCAAGGA,-0.192
14,ACCCATAG,-0.346
15,TCAGCCGA,-0.137
16,AAGACCTC,-0.258
17,CCATAGCA,-0.145
18,CGCCACAC,-0.0598
19,ACCTCGTA,0.126
20,ATAAAACA,0.264
21,TAGGGGCA,-0.208
22,CATACTCA,0.168
23,GCTCTTCA,-0.259
24,CGGATGAA,0.0601
25,CTTTAAAC,0.153

row,Sequence,PBM E-score
1,AACCCGGC,0.0143
2,AGTCGGGA,-0.192
3,GACTGCGC,-0.148
4,ATCCATCG,-0.154
5,ATGTAGAG,0.376
6,CCCTCTAG,-0.185
7,CAAAATTG,0.0272
8,CACAATGA,0.0518
9,CAGCAGCA,-0.021
10,ATCATATG,0.161
11,AAGTCTGG,0.0378
12,AGTCTGCA,-0.221
13,GACTCGCA,-0.247
14,GATAACGA,0.136
15,AATGGCGG,-0.388
16,CTCAAACC,-0.106
17,ATGCTGCG,-0.126
18,GTACAGAC,0.17
19,ACTAGTTG,-0.0172
20,CGAGGGAG,-0.302
21,CCATCTTA,-0.0983
22,CACAGTAG,-0.062
23,AATCGGTC,-0.081
24,CCCTCTGC,-0.31
25,CCGATACA,0.0222

row,Sequence,PBM E-score
1,AGAGAGCC,-0.275
2,ATGTTTTA,0.422
3,AGCATCTG,-0.0361
4,TAACCTGA,-0.0203
5,ACGGACGA,0.109
6,TTGATCAA,0.0657
7,CCAAGCCC,-0.0716
8,CAGTAACA,0.18
9,GTTGCGGA,0.0283
10,ACGAATCC,0.056
11,CTTTTATA,0.0262
12,TACAACCA,0.226
13,AGCTCTCC,-0.127
14,CCGCAGTC,-0.0169
15,CCTTACAG,-0.106
16,TACTTAGA,0.0639
17,AGAGGGCC,-0.376
18,AAATTGGG,-0.0745
19,ATTCTACA,0.371
20,ACCAGGCA,-0.257
21,CTAACGCC,-0.18
22,GTGGGATA,-0.113
23,ATCAGTGG,-0.195
24,ACATTGGG,-0.0197
25,AGGGTTAT,0.0939

row,Sequence,PBM E-score
1,GCTATGTA,0.426
2,CCATGAGA,-0.194
3,AATATGGC,-0.059
4,AGTGCACA,-0.0563
5,CAAAATGC,0.0763
6,AGCCTGTC,-0.0837
7,CCGAGTTC,0.0247
8,TCCGGGCA,-0.0623
9,ATAGGGCC,-0.247
10,TCCTAGAA,-0.145
11,CCTCGATC,-0.275
12,CGATACGC,0.0789
13,GAAACCAA,0.00698
14,AAGCGCGC,0.0629
15,ACGTGCTG,0.166
16,AGTGTTCA,0.00891
17,CTGTGCCC,-0.114
18,GAGGAGAC,-0.314
19,ACCCGTCC,-0.266
20,GCCTCCAC,-0.284
21,AGCTCGTG,-0.014
22,ACCGATCC,-0.28
23,CTGCACGA,0.0626
24,AAACGTTT,0.0186
25,CCTTTAGC,-0.0886

row,Sequence,PBM E-score
1,CATACCGC,-0.0255
2,GCATATGA,-0.00235
3,AAACAGTA,0.135
4,AAGAGTTA,0.104
5,AATGGGCG,-0.155
6,CGAGCCTA,0.0145
7,TGGGGGAA,-0.371
8,AATGGGGA,-0.156
9,GTCACCAA,-0.167
10,ACGCGCTG,0.245
11,CCACGGTA,-0.0423
12,GACACAAC,0.264
13,AGAGCGCG,-0.0468
14,CCCTATTA,-0.051
15,ACAGGGTG,-0.00085
16,ATCTCAAC,0.233
17,CAGGCCAA,-0.177
18,AGTTAACT,0.129
19,CATGTCAA,0.44
20,CCAAAGCG,-0.1
21,ATATTGGG,-0.261
22,GAATCAGC,-0.129
23,AATGACCC,-0.282
24,AATACGCG,0.399
25,CCCCTATA,-0.179

row,Sequence,PBM E-score
1,TATCATCA,0.12
2,CATCGAAA,-0.12
3,ACTCGATA,0.163
4,AATGTCGG,0.124
5,CCGTGTCG,0.233
6,ACAGAGCC,-0.085
7,GTCAACTA,0.1
8,GGCGTTAA,0.216
9,ACAGCGGT,0.0344
10,ATCACGGA,-0.189
11,CTACGTCA,0.0853
12,CACGTTAG,0.113
13,CACCAATC,-0.188
14,CTGGCAGA,-0.162
15,ACGAGTCT,-0.105
16,GCCAGACC,-0.278
17,CTACGGAG,-0.247
18,CGGGATAG,-0.302
19,CAAGCTAC,0.103
20,AGGGCTTG,0.168
21,ATGCGCCC,-0.0558
22,AGCTGGAG,-0.147
23,ATCGTTTA,0.218
24,CGTTGGGA,-0.0124
25,ATGAAGGG,-0.201

row,Sequence,PBM E-score
1,GACAGTAA,0.0134
2,TGAATAAA,0.245
3,ACAATTCC,-0.00895
4,ACAACGAA,0.129
5,ACCACTGG,-0.0198
6,CGCCGAAG,-0.238
7,ACTGCAAT,0.00745
8,GCCCAGGC,-0.262
9,AGCAGCAG,-0.0472
10,GACGCGCC,0.0148
11,ACTCGCGA,-0.0234
12,CGACCACA,-0.00786
13,GTGGTATA,0.0843
14,CAAAATGA,0.0816
15,ATTATGGC,0.013
16,AACATAAT,0.287
17,CCTTATCC,-0.281
18,ACGAGCAA,-0.105
19,CCCCCTGA,-0.222
20,AGGGGGCA,-0.275
21,AAGAAACT,0.0109
22,CGATCCCA,-0.262
